Results taken from the supplement of paper PMC8183993.
Structures can show the parent of a compound that is named as a salt. ± gives the standard deviation of the averaged measurements. Whole data set: some 3,200 compounds, median “nuclei count (viability) relative to DMSO” near 99, cut for the lowest 2% near 16. Some of the results follow.

system: U2OS; assay: nuclei count (viability) relative to DMSO (% of DMSO); higher = more viable cells; settings: 10 µM; 24 h
Method: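 Primary image-based screen in U2OS cells: compounds at 10 uM for 24 h, then a 1 h o-propargyl-puromycin (OPP) pulse, click labelling, and high-throughput microscopy. Mean cytoplasmic OPP intensity and nuclei count were normalised to DMSO wells within each plate (DMSO = 100) and averaged over triplicate plates.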

| Compound | nuclei count |
| --- | --- |
| Nc1ccc(C(=O)O)c(O)c1 [Sodium 4-Aminosalicylate] | 104 |
| Nc1ccc(C(=O)O)c(O)c1 [4-aminosalicylic acid] | 103 |
| c1ccc2sc(N3CCN(Cc4ccc5c(c4)OCO5)CC3)nc2c1 [2-[1-(4-Piperonyl)piperazinyl]benzothiazole] | 111 |
| O=C1Nc2ccc(Cl)cc2[C@@](C#CC2CC2)(C(F)(F)F)O1 [Efavirenz] | 94.4 |
| N#Cc1ccc(NC(=O)Nc2ccccc2Br)c2n[nH]nc12 | 96.4 |
| COc1cc(CCc2cc(NC(=O)c3ccc(N4CC(C)NC(C)C4)cc3)n[nH]2)cc(OC)c1 (stereo not drawn) | 41.9 ± 6.1 |
| C[C@@H]1CC[C@@]2(OC1)O[C@H]1C[C@H]3[C@@H]4CC=C5C[C@@H](O)CC[C@]5(C)[C@H]4CC[C@]3(C)[C@H]1[C@@H]2C [Diosgenin] | 97 |
| Clc1ccc(C(c2ccccc2Cl)C(Cl)Cl)cc1 (stereo not drawn) [Mitotane] | 102 |
| Clc1ccc(C(c2ccccc2Cl)C(Cl)Cl)cc1 (stereo not drawn) [Mitotane (Lysodren)] | 87.9 |
| O=C1O[C@H]([C@@H](O)CO)C(O)=C1O [Ascorbic acid] | 103 ± 2.5 |
| Cc1cccc(C)c1OCC(=O)N[C@@H](Cc1ccccc1)[C@@H](O)C[C@H](Cc1ccccc1)NC(=O)[C@H](C(C)C)N1CCCNC1=O [Lopinavir (ABT-378)] | 101 |
| c1ccc(-c2nn3c(c2-c2ccnc4cc(OCCN5CCOCC5)ccc24)CCC3)nc1 | 100 |
| O=C(c1ccc(F)cc1)C1CCN(CCn2c(=S)[nH]c3ccccc3c2=O)CC1 [Altanserin hydrochloride] | 88 |
| O=C(O)Cn1nnc(-c2cc(N3CCC(Oc4cc(F)ccc4Br)CC3)no2)n1 | 112 |
| O=C(O)c1ccccc1Nc1cccc(C(F)(F)F)c1 [Flufenamic acid] | 94.4 ± 4.4 |
| CC[N+](C)(CC)CCC[n+]1c(-c2ccccc2)c2cc(N)ccc2c2ccc(N)cc21 [Propidium iodide] | 100 |
| CCC(=O)O[C@]1(C(=O)SCF)[C@H](C)C[C@H]2[C@@H]3C[C@H](F)C4=CC(=O)C=C[C@]4(C)[C@@]3(F)[C@@H](O)C[C@@]21C [Fluticasone propionate] | 99.3 ± 7.9 |
| CCC(=O)O[C@]1(C(=O)SCF)[C@H](C)C[C@H]2[C@@H]3C[C@H](F)C4=CC(=O)C=C[C@]4(C)[C@@]3(F)[C@@H](O)C[C@@]21C [Fluticasone propionate (Flonase, Veramyst)] | 109 |
| NS(=O)(=O)c1nn2cc(-c3ccccc3)nc2s1 | 101 |
| Nc1ccc(/N=N/c2ccccc2)c(N)n1 [Phenazopyridine hydrochloride] | 95.6 |
| CN(C)CCOC(=O)C(c1ccccc1)C1(O)CCCC1 (stereo not drawn) [Cyclopentolate hydrochloride] | 101 |
| CCc1cc(Cl)c(OC)c(C(=O)NC[C@@H]2CCCN2CC)c1O [Eticlopride hydrochloride] | 113 |
| CC(C)[C@H](O)C(=O)N[C@@H](C)C(=O)N[C@@H]1C(=O)N(C)CCc2ccccc21 | 110 |
| O=C(NCCCCCCNC(=O)ON=C1CCCCC1)ON=C1CCCCC1 | 103 |
| C=CCN1CCc2cc(O)c(O)cc2C(c2ccccc2)C1 (stereo not drawn) | 103 |
| OCCN1CCN(CC/C=C2/c3ccccc3Sc3ccc(Cl)cc32)CC1 [Zuclopenthixol dihydrochloride] | 99.7 |

| Compound | nuclei count |
| --- | --- |
| Cc1[nH]nc2ccc(-c3cncc(OC[C@@H](N)Cc4ccccc4)c3)cc12 | 24.3 |
| Nc1nc(N)c2nc(-c3ccccc3)c(N)nc2n1 [Triamterene] | 92.1 |
| C=C1CC[C@H](O)C/C1=C/C=C1\CCC[C@]2(C)[C@@H]([C@H](C)/C=C/[C@H](C)C(C)C)CC[C@@H]12 [Vitamin D2 (Ergocalciferol)] | 116 |
| C=CC[N+]1([C@H]2C[C@H]3[C@@H]4CC[C@H]5C[C@H](O)[C@@H](N6CCOCC6)C[C@]5(C)[C@H]4CC[C@]3(C)[C@H]2OC(C)=O)CCCC1 [Rocuronium bromide] | 97.2 |
| CC(C)(C)NC(=O)[C@H]1CC[C@H]2[C@@H]3CC[C@H]4NC(=O)C=C[C@]4(C)[C@H]3CC[C@]12C [Finasteride] | 103.8 ± 0.73 |
| Cc1ccc(C(=O)N(CCCN)[C@@H](c2oc3cc(Cl)ccc3c(=O)c2Cc2ccccc2)C(C)C)cc1 | 20.5 |
| Cn1nnc2c(C(N)=O)ncn2c1=O [Temozolomide] | 99.1 ± 4.6 |
| Cn1nnc2c(C(N)=O)ncn2c1=O [Methazolastone] | 112 |
| O=[N+]([O-])c1cn2c(n1)OC[C@@H](OCc1ccc(OC(F)(F)F)cc1)C2 | 107 |
| C[C@]12CC[C@H](O)CC1=CC[C@@H]1[C@@H]2CC[C@]2(C)C(c3cccnc3)=CC[C@@H]12 [Abiraterone (CB-7598)] | 109 |
| COc1ccc(CCC(=O)c2c(O)cc(O[C@@H]3O[C@H](CO)[C@@H](O)[C@H](O)[C@H]3O[C@@H]3O[C@@H](C)[C@H](O)[C@@H](O)[C@H]3O)cc2O)cc1O [Neohesperidin dihydrochalcone (Nhdc)] | 98.7 |
| CC(C)(C)CC(C)(C)c1ccc(OCCOCC[N+](C)(C)Cc2ccccc2)cc1 [Benzethonium chloride] | 84.1 |
| CCCCOc1ccc(C(=O)CCN2CCCCC2)cc1 [Dyclonine hydrochloride] | 106 |
| COc1ccc(CCC(=O)Nc2nc3ccc(Cl)cc3s2)cc1OC | 100 |
| COc1ccc(-c2cc3nccn3c(Nc3ncccc3C(N)=O)n2)cc1OC | 75.3 |
| C=C1C(=O)O[C@H]2[C@H]1CC/C(C)=C/CC[C@@]1(C)O[C@@H]21 [Parthenolide] | 72.2 ± 29 |
| Cn1c(N2CCCCS2(=O)=O)nc(C(=O)NCc2ccc(F)cc2)c(O)c1=O | 98.4 |
| CC(CN(C)C)CN1c2ccccc2CCc2ccccc21 (stereo not drawn) [Trimipramine maleate salt] | 103 |
| COP(=O)(OC)OC(c1ccc(Cl)cc1)P(=O)(OC)OC (stereo not drawn) | 92.6 |
| COC(=O)[C@H]1[C@H]2C[C@H]3c4[nH]c5ccccc5c4CCN3C[C@H]2CC[C@@H]1O [Rauwolscine hydrochloride] | 104 |
| CC(C)NCC(O)COc1cccc2[nH]ccc12 (stereo not drawn) [Pindolol] | 100 ± 18 |
| OC(CCN1CCCC1)(c1ccccc1)C1CCCCC1 (stereo not drawn) [Procyclidine hydrochloride] | 98.1 |
| C[N+](C)(C)C[C@H](O)CC(=O)[O-] [L-carnitine (Levocarnitine)] | 108 |
| O=C(O)c1cc(O)ccc1O [Gentisic acid] | 103 |
| CC(C)C(=O)c1c(C(C)C)nn2ccccc12 [Ibudilast] | 100.6 ± 0.23 |
| C[N+](C)(C)CC(O)CC(=O)[O-] (racemic) [DL-Carnitine HCl] | 100 |

| Compound | nuclei count |
| --- | --- |
| O=C(/C=C/c1cccnc1)NCCCCC1CCN(C(=O)c2ccccc2)CC1 | 94.8 |
| NCCc1ccc(O)c(O)c1 [Dopamine hydrochloride] | 108 |
| C[C@H](CS)C(=O)N1CCC[C@H]1C(=O)O [Captopril] | 93.9 ± 13 |
| C[C@H](CS)C(=O)N1CCC[C@H]1C(=O)O [Captopril (Capoten)] | 85 |
| CN(Cc1cc(Br)cc(Br)c1N)C1CCCCC1 [Bromhexine hydrochloride] | 111 |
| Nc1nc(N)c2nc(-c3cccc(O)c3)c(-c3cccc(O)c3)nc2n1 | 104 |
| Cn1cnc2c(F)c(Nc3ccc(Br)cc3Cl)c(C(=O)NOCCO)cc21 [AZD6244 (Selumetinib)] | 97.5 |
| CC1(C)O[C@@H]2C[C@H]3[C@@H]4C[C@H](F)C5=CC(=O)C=C[C@]5(C)[C@H]4[C@@H](O)C[C@]3(C)[C@]2(C(=O)CO)O1 [Flunisolide] | 100 |
| Cc1ccc2c(c1)c1c(n2CCc2ccc(C)nc2)CCN(C)C1 [Dimebon (Latrepirdine)] | 95.3 |
| COc1ccc(CNc2nc(N3CCC[C@H]3CO)ncc2C(=O)NCc2ncccn2)cc1Cl [Avanafil] | 106 |
| CC(=O)OCC(=O)[C@@]1(O)CC[C@H]2[C@@H]3CCC4=CC(=O)C=C[C@]4(C)[C@H]3[C@@H](O)C[C@@]21C [Prednisolone acetate (Omnipred)] | 112 |
| O=C1NC(c2cccc([N+](=O)[O-])c2)=CCN1c1ccccc1O [Icilin] | 101 |
| CCCN(CC1CC1)c1nc(C)nc(Nc2c(Cl)cc(Cl)cc2Cl)c1Cl | 103 |
| CN1CCN(C(=O)c2cc3cc(Cl)ccc3[nH]2)CC1 | 102 |
| N#CC1(c2ccc(NC(=O)c3cccnc3NCc3ccncc3)cc2)CCCC1 [Apatinib (YN968D1)] | 102 |
| CCCNC(=O)N1N=C(c2ccc(N)cc2)c2cc3c(cc2C1C)OCO3 (stereo not drawn) | 93 |
| Cc1c(Nc2ncccc2C(=O)O)cccc1C(F)(F)F [Flunixin meglumine] | 97 |
| CC[C@H](c1ccc(O)cc1)[C@@H](CC)c1ccc(O)cc1 [Hexestrol (Bibenzyl)] | 101 |
| CC[C@H](c1ccc(O)cc1)[C@@H](CC)c1ccc(O)cc1 [Hexestrol] | 102 |
| COc1ccc(Br)cc1S(=O)(=O)NC(=O)/C=C/c1ccccc1Cc1ccc2ccccc2c1 | 104 |
| CN1CCN(C(=O)c2nc3ccc(Cl)cc3[nH]2)CC1 | 88.3 |
| Nc1ncn(C2CC(O)C(CO)O2)c(=O)n1 (stereo not drawn) [5-Aza-2-deoxycytidine] | 95.1 |
| CN(C(=O)CCCOc1ccc2[nH]c(=O)ccc2c1)C1CCCCC1 [Cilostamide] | 103 |
| NNC(=O)c1ccncc1 [Isoniazid] | 89.2 |
| O=C(Nc1ncc(SCCN2CCCC2)s1)[C@]1(c2ccc(S(=O)(=O)C3CC3)cc2)C[C@H]1C1CCCCC1 | 61.2 |
| O=C(O)CCCN1CCC(O[C@@H](c2ccc(Cl)cc2)c2ccccn2)CC1 [Bepotastine Besilate] | 104 |
